Assay results: the supplement of paper PMC10369915
Some of the results follow. Cut-off read from the data, not from the text of the source: active = 3.2 or more and inactive = the rest. Only a few entries rise above the background.

Columns and labels:
Assay in all cases: enrichment score (SH2-bound / input frequency) (ratio); bacterial display of known human phosphotyrosine sites (pTyr-Var adds point mutants) read by sequencing; higher = stronger binding; tyrosines were phosphorylated by kinases first
Details in all cases: peptide library: pTyr-Var
SHP2 C-SH2 domain E139D = biological target: SHP2 C-SH2 domain E139D
[1] = biological target: SHP2 C-SH2 domain wild-type
SHP2 N-SH2 domain L43F = biological target: SHP2 N-SH2 domain L43F
SHP2 N-SH2 domain T42A = biological target: SHP2 N-SH2 domain T42A
SHP2 N-SH2 domain T52S = biological target: SHP2 N-SH2 domain T52S
[2] = biological target: SHP2 N-SH2 domain wild-type
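Note: displayed peptides selected on beads carrying the immobilized SH2 domain, with library peptides lacking any tyrosine serving as negative controls.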

Binder | enrichment score (SHP2 C-SH2 domain E139D) | enrichment score [1] | enrichment score (SHP2 N-SH2 domain L43F) | enrichment score (SHP2 N-SH2 domain T42A) | enrichment score (SHP2 N-SH2 domain T52S) | enrichment score [2]
TKAEKYVNKAK [PLCG1_Y991] | inactive: 0.828 | inactive: 0.751 | inactive: 0.911 | inactive: 0.838 | inactive: 1 | inactive: 0.85
PVDVAYRRGFF [PLEC_Y2967_YF] | inactive: 0.401 | inactive: 0.373 | inactive: 0.683 | inactive: 0.299 | inactive: 0.405 | inactive: 0.333
YMRGMYFRMKD [PLA2G6_Y541] | inactive: 1.4 | inactive: 0.992 | inactive: 0.961 | inactive: 1 | inactive: 1.27 | inactive: 1.02
QGCSIYKDYYR [PLA2G2D_Y82] | inactive: 1.15 | inactive: 0.822 | inactive: 0.847 | inactive: 0.874 | inactive: 1.02 | inactive: 1.26
EHIEFYELDKK [PMM2_Y145_R141H] | inactive: 0.706 | inactive: 0.375 | inactive: 0.331 | inactive: 0.428 | inactive: 0.621 | inactive: 0.425
EELLRYAIVTP [POC5_Y37_H36R] | inactive: 2.27 | active: 4.43 | active: 4.42 | active: 4.29 | active: 5.17 | inactive: 1.68
HMEAVYIDIAD [PITPNA_Y140_V136M] | inactive: 1.6 | inactive: 1.32 | inactive: 0.871 | inactive: 1.44 | inactive: 0.961 | inactive: 1.3
GIFKDYFRFNF [PLA2G2D_Y85_S80G_YF] | inactive: 2.1 | inactive: 2.35 | inactive: 2.38 | inactive: 2.19 | inactive: 2.26 | inactive: 2.63
PVPKTYDMLNA [PKP2_Y108_K112N] | inactive: 0.542 | inactive: 0.843 | inactive: 0.985 | inactive: 0.713 | inactive: 1.01 | inactive: 0.738
GGPAEYLRRAS [PKLR_Y38_G37E] | inactive: 0.68 | inactive: 0.737 | inactive: 0.7 | inactive: 0.624 | inactive: 0.572 | inactive: 0.812
EDGRLYAVKCS [PKMYT1_Y136_R140C] | inactive: 0.743 | inactive: 0.818 | inactive: 0.614 | inactive: 0.615 | inactive: 0.668 | inactive: 0.84
KPIETYFSKNF [PLP1_Y50_L46P_YF] | inactive: 0.804 | inactive: 0.737 | inactive: 0.628 | inactive: 0.678 | inactive: 0.872 | inactive: 0.827
GGPAGYLRRAS [PKLR_Y38] | inactive: 0.322 | inactive: 0.198 | inactive: 0.261 | inactive: 0.442 | inactive: 0.286 | inactive: 0.37
DGTESYLTVSS [PLK1_Y462] | inactive: 0.645 | inactive: 0.552 | inactive: 0.531 | inactive: 0.531 | inactive: 0.495 | inactive: 0.709
DHTVNYVLKCR [PLEKHG4_Y1068_R1064H] | inactive: 0.742 | inactive: 0.906 | inactive: 0.641 | inactive: 0.721 | inactive: 0.539 | inactive: 0.815
GGPAGYLWRAS [PKLR_Y38_R40W] | inactive: 0.969 | inactive: 0.726 | inactive: 0.957 | inactive: 0.792 | inactive: 0.891 | inactive: 1.09
ADARMYGVLLW [PLP1_Y207_P211L] | inactive: 0.539 | inactive: 0.832 | inactive: 0.558 | inactive: 0.596 | inactive: 0.475 | inactive: 0.759
EGQKIYIDDNS [PIP4K2A_Y246_N251S] | inactive: 0.553 | inactive: 0.534 | inactive: 0.639 | inactive: 0.753 | inactive: 0.565 | inactive: 0.793
TTKAKYKTPTY [PLD2_Y573] | inactive: 0.836 | inactive: 0.747 | inactive: 0.621 | inactive: 0.66 | inactive: 0.606 | inactive: 0.835

Binder | enrichment score (SHP2 C-SH2 domain E139D) | enrichment score [1] | enrichment score (SHP2 N-SH2 domain L43F) | enrichment score (SHP2 N-SH2 domain T42A) | enrichment score (SHP2 N-SH2 domain T52S) | enrichment score [2]
QVKEQYQDVPM [PKP2_Y659_K654Q] | inactive: 0.65 | inactive: 0.542 | inactive: 0.702 | inactive: 0.705 | inactive: 0.746 | inactive: 0.597
PVDVAYRHGFF [PLEC_Y2967_R2969H_YF] | inactive: 0.801 | inactive: 0.491 | inactive: 0.73 | inactive: 0.571 | inactive: 0.86 | inactive: 0.924
QGCGIYKDFFR [PLA2G2D_Y82_S80G_YF] | inactive: 2.47 | inactive: 1.73 | inactive: 1.51 | inactive: 1.95 | inactive: 1.07 | inactive: 2.16
SAAAIYMVRHP [PMP22_Y117_T118M] | inactive: 1.18 | inactive: 1.19 | inactive: 1.21 | inactive: 1.07 | inactive: 1.28 | inactive: 1.38
LGGAMYFLEAD [PKHD1_Y452_E457D_YF] | inactive: 1.22 | inactive: 1.1 | inactive: 0.994 | inactive: 1.21 | inactive: 1.11 | inactive: 0.952
LNLDTYQKRLR [PLA2G2D_Y126_R121L] | inactive: 0.652 | inactive: 0.598 | inactive: 0.483 | inactive: 0.422 | inactive: 0.496 | inactive: 0.588
FTHSDYQFGQR [PKP2_Y166_S169G_YF] | inactive: 0.662 | inactive: 0.729 | inactive: 0.729 | inactive: 0.569 | inactive: 0.57 | inactive: 0.858
KRIETYFSKNY [PLP1_Y50_L46R] | inactive: 0.57 | inactive: 0.562 | inactive: 0.616 | inactive: 0.404 | inactive: 0.525 | inactive: 0.67
KVKEQYQDVPM [PKP2_Y659] | inactive: 0.533 | inactive: 0.579 | inactive: 0.566 | inactive: 0.529 | inactive: 0.652 | inactive: 0.676
KLIETCFSKNY [PLP1_Y50_Y50C] | inactive: 0.886 | inactive: 1.08 | inactive: 1.08 | inactive: 0.749 | inactive: 0.793 | inactive: 1.39
RPGSGYTNIMQ [PKLR_Y564_R569Q] | inactive: 0.753 | inactive: 1.13 | inactive: 0.713 | inactive: 0.714 | inactive: 0.705 | inactive: 0.705
SEPDLYYDPRG [PKP1_Y160_C161Y] | inactive: 0.672 | inactive: 0.65 | inactive: 0.695 | inactive: 0.429 | inactive: 0.673 | inactive: 0.693
NGRQCYSCKGN [PLAUR_Y217] | inactive: 1.61 | inactive: 1.35 | inactive: 1.48 | inactive: 1.39 | inactive: 1.58 | inactive: 1.55
YTHSDYQYGQR [PKP2_Y166_S169G] | inactive: 0.813 | inactive: 0.53 | inactive: 0.431 | inactive: 0.411 | inactive: 0.527 | inactive: 0.571
LSDVIYVILRK [PMP22_Y153_G150D] | inactive: 0.676 | inactive: 0.7 | inactive: 0.498 | inactive: 0.667 | inactive: 0.512 | inactive: 0.309
LSGVIYVILWK [PMP22_Y153_R157W] | inactive: 1.03 | inactive: 0.978 | inactive: 1.25 | inactive: 1.18 | inactive: 1.35 | inactive: 0.844
EGQKIYIDDNN [PIP4K2A_Y246] | inactive: 0.75 | inactive: 0.764 | inactive: 0.582 | inactive: 0.552 | inactive: 0.691 | inactive: 0.653
LHNLFYQLEAE [PKP2_Y616_S615F] | inactive: 1.63 | inactive: 1.5 | inactive: 1.42 | inactive: 1.58 | inactive: 1.45 | inactive: 1.3
